Assay results published in article PMC12136788.
The list shows a part of the results.

B1: 54565288_54565408_3335_CDS_ENSG00000067248_ENST00000251636|human|control|control (ssRNA)
RNA: GGGAGUUCUACAGUCCGACGAUCAAUCUUGACAUUCACAGGUAAAGCUGCAAGGUGUUGGCCCAACGGAGUCAGUUUAGGCUCAUUUAAUUCACAAGCUCCAAUUUUUCGGAGCAAAUUCAUUGCAUUGCUGAUCACUUGGAGCAACAGAGGAUUGAGCAUCA
B2: 110450171_110450291_691_CDS_ENSMUSG00000044791_ENSMUST00000153838|mouse|control|control (ssRNA)
RNA: GGGAGUUCUACAGUCCGACGAUCCAUUAGUGCUGUUGCUGGGGGUUGCGGCAAGGCCACUGGCUCUGAUAUCUGUGCUGGUGGUGAGGGUGAUGAGGCCUGGGGAGGUGGAGGAGGUGGGGGUGGAGAUGAAGGUGGUGAGUCCAACAGAGGAUUGAGCAUCA
B3: chr2:48026839:48026840:+_ENSG00000116062_ENST00000540021|hu_hu|hu_hu_hu_mus_False|48_78 (ssRNA)
RNA: GGGAGUUCUACAGUCCGACGAUCAUAGUGAGCCACUAGCGUCCUAAAUCUGGAACAAUGGCGAUCAUCCGAAAACUGGCCGAUGAAAAACUUUCCCAGUGAAGUGUCCACAAAGCAAACACCAUACACACGAGUGUGACCAGACAACAGAGGAUUGAGCAUCA
B4: chr2:42509997:42509998:+_ENSG00000143924_ENST00000318522|hu_mus|hu_hu_hu_mus_True|38_68 (ssRNA)
RNA: GGGAGUUCUACAGUCCGACGAUCUCGCUGAGUCCUCUCCUCAUAAUUAAACAGGACUACCACUGAGGCAAUGAAAUAAACUAUCUCCCCUGUGGGAAGAAGGUAAACAUUCGCUCUACAGUCCUUUCCUCGAUAACCGUAUACCAACAGAGGAUUGAGCAUCA
B5: chr6:41757443:41757444:+_ENSG00000214736_ENST00000398881|hu_mus|hu_hu_hu_mus_False|38_78 (ssRNA)
RNA: GGGAGUUCUACAGUCCGACGAUCGAACCGUGCAGAGGCAACAUCUCAGCCGACACUGUGGACUCAAGGGGCAGUGGGGGGGGGUUCAGGCAAGGAGAAGAAAAGUGCUUCAGCUGCCACUCAGGUAGGAUCUUGUGGUCACAGCAACAGAGGAUUGAGCAUCA
B6: 33885606_33886921_1799_CDS_ENSG00000170248_ENST00000307296|human|control|control (ssRNA)
RNA: GGGAGUUCUACAGUCCGACGAUCGUUGGUUCCCUCUGCUCUUAAAGGCUUAUACAGUUCAUUGGAUGGUGUCCUUUGCCAACGUUCCUUAAAUUUUGCUCUUAAAUCAUUAUCGGUUGCUUCUUCUUCAUCCAACAACCUUAACAACAGAGGAUUGAGCAUCA
B7: chr1:52991732:52991733:-_ENSG00000134744_ENST00000257177|hu_hu|motif|central (ssRNA)
RNA: GGGAGUUCUACAGUCCGACGAUCUUUAGGACCUGGAAGGUUGGCAGCAUUUACUUUACAUGAUUUAACUUCUGUUUUUUCGGUACAAAUAUCAUUUUGCUUAUUUUUUUUACUACUAUUCCUAUUUGGAGAGCUGUUCUCAAUCAACAGAGGAUUGAGCAUCA
B8: 208598739_208606946_670_CDS_ENSG00000163249_ENST00000295414|human|control|control (ssRNA)
RNA: GGGAGUUCUACAGUCCGACGAUCUGUAAGUGGAUGUGAUCUCUCAUCAAAAAUAUCCAGGGAUCUAUUUGCAUCUCUGUUCUUUAUGUGGUAAUAUAUUGCUAAGGUCACACAUUUUACUGUGGUUCUAAGAUUAGGCUGGCUCAACAGAGGAUUGAGCAUCA
B9: chr11:77336104:77336105:-_ENSG00000074201_ENST00000525064|hu_mus|hu_hu_hu_mus_False|18_68 (ssRNA)
RNA: GGGAGUUCUACAGUCCGACGAUCCUCACACAUUGCUGUGAACAUCGCCUCCAAUGCUGACUUAUCACUAGGCACAAAUCGAAAUUCAGAAAUGGGUUCAACAUCAUCAUUGUCUUCUUCCUCUUCUUCAGAGAGAGGUUCUUUCAACAGAGGAUUGAGCAUCA
B10: chr3:31621302:31621303:+_ENSG00000163527_ENST00000295770|hu_hu|FALSE|FALSE (ssRNA)
RNA: GGGAGUUCUACAGUCCGACGAUCUAAAAUCCAAUGAAUAAGGCCAGCGGUUAUCAUCAACCCUGGGUAAACAGUACCACCUACUAUUCUUCCUAGUGGAUACCAUGCUCUUUCAUCAAACCAAUUUAAAAAUUCAUAGAACCCCAACAGAGGAUUGAGCAUCA
B11: 4383590_4383710_126_3pUTR_ENSMUSG00000041124_ENSMUST00000047173|mouse|control|control (ssRNA)
RNA: GGGAGUUCUACAGUCCGACGAUCGCUUUUCCUUUUUCUUUUCAAUUGCUUCAUUUUUAAAAAUCCAGUGCAGAUUUUAACAGCAAAAAGAGCUGUGCAAAGAAUGUGAAGAGUGUGCCACAAACCCAAGGCUUUGUUGGCUCUCAACAGAGGAUUGAGCAUCA
B12: chr1:193053832:193053833:+_ENSG00000116747_ENST00000432079|hu_hu|motif|central (ssRNA)
RNA: GGGAGUUCUACAGUCCGACGAUCGAUCACUGAUGGCAAUGGAUCUCUGGAUCGUGCUGCUGCUUAUGGUUAAAUCAUAUCGGAUGUGAAAUUUCGAAUUACAUCCAGAGCUCCAGUAUCAAAGCCGCACAUAUCCAACAUGCCCAACAGAGGAUUGAGCAUCA
B13: chr20:57485947:57485948:+_ENSG00000087460_ENST00000306090|hu_hu|motif|central (ssRNA)
RNA: GGGAGUUCUACAGUCCGACGAUCGGGGGUUUCGCAAAAUCACUCGGGGGAAGGGAAAGGUUGCUUUGUUAAUCAUGCCCGGUGGUGGGUGAUUAACUGCUUGUACAAUUACGUUUCACUUUUAAUUAAUUGUGCUUAAGGCUUCAACAGAGGAUUGAGCAUCA
B14: chr4:84185219:84185220:-_ENSG00000173085_ENST00000439031|hu_hu|motif|central (ssRNA)
RNA: GGGAGUUCUACAGUCCGACGAUCUCUGUGACAAGGGGGAAUUUUGCUAGCAAAUAAGUAAAAUCCAGGUAAAUAUGCUCGGAAUCUUCAUCUUCAGGUUCUUAAUUCUUUAACAUAUUGUAUCAGAUUUUGUAUUCAAAUCUACAACAGAGGAUUGAGCAUCA
B15: chrX:98510588:98510589:+_ENSMUSG00000031302_ENSMUST00000065858|mus_mus|motif|central (ssRNA)
RNA: GGGAGUUCUACAGUCCGACGAUCAUGAGACAGUGUAAGGAGACUGACACAGGAUGCACCGAUGCCAGAGCCAAAGACAGUAAUUCGGCGGGGAUCUCCUCCAAAGAAGGCAAUAUUCUCACUCACCCAGCGAAGGGCCUGGAUCAACAGAGGAUUGAGCAUCA
B16: 42876026_42876146_3379_3pUTR_ENSG00000023516_ENST00000025301|human|control|control (ssRNA)
RNA: GGGAGUUCUACAGUCCGACGAUCUUUAUCUUCCACAUGCAAACCAUCUACACAGGUAAGUGCUGUAGAUGAGAAAGUAUGUGAAUGAGGAAAGGGGUUUUCCUGUCCAAAAGACAAGGCCUCAAGUGAUGUACUAUUCAAGUUCAACAGAGGAUUGAGCAUCA
B17: 4793058_4793178_250_3pUTR_ENSG00000120158_ENST00000381750|human|control|control (ssRNA)
RNA: GGGAGUUCUACAGUCCGACGAUCGGGGCGCCCGCUCAGGGUAGACAGGACCAGACGUUGGCGCAAGAAGUUGCACCCUGCGUAGCUGAGGGAGUGCGCCUGAGUCGCCAUGUGCGCGCUCUCCGAAGAGACGUGAGCAGCCCGCAACAGAGGAUUGAGCAUCA
B18: chr1:165664616:165664617:-_ENSG00000143149_ENST00000354775|hu_mus|FALSE|FALSE (ssRNA)
RNA: GGGAGUUCUACAGUCCGACGAUCCUUUGCAUUCUCAACGGCCAAGUUUACUUCCUUUUCUCCUGAACACGCGAAAGUGGCAAUCACUCGGCCGGUGGCUGGCUCGAACGCUUUCUCCGUGCCGGAAGCAUCCACCGGCUCCACCAACAGAGGAUUGAGCAUCA
B19: chr17:31789506:31789507:-_ENSMUSG00000061613_ENSMUST00000166526|mus_hu|FALSE|FALSE (ssRNA)
RNA: GGGAGUUCUACAGUCCGACGAUCAGACUGGGAAGAGUUUUGAGGGUUACGGUAAAUGUUCAAGAGGGCAAUGGUCUGGCUAAACGUCGGUUUAUUGUGCAACCGAGAGCACCUGUCUCCAUGACGACAUGCUCCAAUUUUGAACAACAGAGGAUUGAGCAUCA
B20: chr5:36177297:36177298:+_ENSG00000145604_ENST00000274255|hu_hu|motif|central (ssRNA)
RNA: GGGAGUUCUACAGUCCGACGAUCCUUUAGCAUGACACUAUCACUUAAGUCUAGAUGGACAAGAUUGGGGCAUCUUCGGACGGAAGUAGAGAGAUCUGAUUUCUGGAGAUUCUUUCUGUAGCCGCUAAGAUUCAGCUGGGUGAUCAACAGAGGAUUGAGCAUCA
B21: chr2:32086683:32086684:+_ENSMUSG00000039262_ENSMUST00000036691|mus_hu|FALSE|FALSE (ssRNA)
RNA: GGGAGUUCUACAGUCCGACGAUCCAGAGGCUAGAGAUGGAAGGGAGCGGAGGGGCUGGCAAGAAACAUAUAAAAGUUCAGCUAUACACAUGGAGCUUGCGUUUUUGUUUUCUUUUCCUUUCCCCUUUGUAAAAACCUUGGCUACAACAGAGGAUUGAGCAUCA
B22: chr12:125510211:125510212:+_ENSG00000184992_ENST00000341446|hu_mus|FALSE|FALSE (ssRNA)
RNA: GGGAGUUCUACAGUCCGACGAUCUAUCCGACUACACAGCUAACAGGGGGUAUAUCCGUUGUUUAAAAACUGCUUUCCCACUGGUGAUCUACGAAAGUGCUCUCUCCUCCAGUGGCUCCUAAGGUCGACACACAGUGGGAAAUACAACAGAGGAUUGAGCAUCA

These binders were tested against T1, UNK ZnF1-3 (human, UniProt Q9C0B0 31-174) (assay: nsRBNS (natural sequence RNA bind-n-seq); RBNS binding buffer (assumed for nsRBNS): 25 mM Tris pH 7.5, 150 mM KCl, 3 mM MgCl2, 0.01% Triton X-100, 500 ug/ml BSA, 20 U/ml SUPERase-In, 4 C; UNK is unkempt and MSI1 is Musashi-1; names of the RNAs are library labels; protein concentration not given here; high values mean tight binding).
T1 sequence: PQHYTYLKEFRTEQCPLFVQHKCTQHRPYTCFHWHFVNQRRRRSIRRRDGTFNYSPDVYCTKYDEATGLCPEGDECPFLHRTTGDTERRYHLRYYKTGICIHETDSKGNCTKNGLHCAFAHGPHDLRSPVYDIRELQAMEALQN

Binder	binding signal [enrichment R]
B1	1.08
B2	1.19
B3	1.26
B4	0.815
B5	1.73
B6	0.557
B7	0.639
B8	0.935
B9	0.838
B10	1.29
B11	1.15
B12	0.864
B13	0.836
B14	0.312
B15	1.21
B16	0.594
B17	0.563
B18	0.642
B19	1.24
B20	0.932
B21	1.5
B22	0.631
